# According to the BET-seq Pho4 binding data (Le et al. 2018):
# Some of the results follow. The energies were worked out here from pooled read counts, against the library average; single values are noisy.
# Biological target: T1, Pho4 (S. cerevisiae) (UniProt P07270)
# T1 sequence: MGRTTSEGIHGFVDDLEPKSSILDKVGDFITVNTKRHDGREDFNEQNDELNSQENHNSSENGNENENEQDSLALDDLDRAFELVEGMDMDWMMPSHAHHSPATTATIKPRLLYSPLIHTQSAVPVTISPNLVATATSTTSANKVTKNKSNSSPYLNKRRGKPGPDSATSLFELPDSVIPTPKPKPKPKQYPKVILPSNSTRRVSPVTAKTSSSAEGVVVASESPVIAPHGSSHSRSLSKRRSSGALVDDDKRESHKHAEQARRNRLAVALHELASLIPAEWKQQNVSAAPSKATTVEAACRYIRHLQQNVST
# Assay: relative binding free energy (BET-seq); higher = weaker binding
# Details: reference: library average
row,Sequence,relative binding free energy
1,TGACGCACGTGGTTTG,-0.3 kcal/mol
2,GGTCTCACGTGGAGGA,0.14 kcal/mol
3,TCAAGCACGTGTGGTA,-0.13 kcal/mol
4,TATATCACGTGAGGCT,0.23 kcal/mol
5,AGGAGCACGTGTGGAT,-0.1 kcal/mol
6,TTGTGCACGTGGTTAA,-0.13 kcal/mol
7,CATAGCACGTGATGTG,-0.03 kcal/mol
8,AAGTACACGTGGAGTA,0.13 kcal/mol
9,TATGTCACGTGTTATA,0.19 kcal/mol
10,GCTTGCACGTGGAGGC,0.14 kcal/mol
11,ATACTCACGTGTTTGG,0.16 kcal/mol
12,AGGTTCACGTGTGCTA,0.16 kcal/mol
13,TTTGGCACGTGTCCGA,-0.11 kcal/mol
14,CGTATCACGTGTGAGG,0.2 kcal/mol
15,TAGGACACGTGTAAGG,0.21 kcal/mol
16,AGTGGCACGTGAGAAT,0.12 kcal/mol
17,AGTGGCACGTGGGGTA,-0.3 kcal/mol
18,TTGGACACGTGGCACG,-0.01 kcal/mol
19,AAACGCACGTGTTGGG,-0.19 kcal/mol
20,AAATTCACGTGGTCAG,0.26 kcal/mol
21,AAAGTCACGTGGAGGT,0.21 kcal/mol
22,CAATGCACGTGGAGAG,0.18 kcal/mol
23,TGGGTCACGTGTCGCA,-0.01 kcal/mol
24,TGTCCCACGTGTTTGT,-0.04 kcal/mol
25,TTTTGCACGTGGATGA,0 kcal/mol

row,Sequence,relative binding free energy
1,TCTAGCACGTGAAGGT,0.13 kcal/mol
2,GAGCGCACGTGTGTGT,-0.1 kcal/mol
3,AAGTTCACGTGTTAAG,0.24 kcal/mol
4,TATTACACGTGGCGAT,0.17 kcal/mol
5,TGCATCACGTGTTTGT,0.07 kcal/mol
6,TGGCGCACGTGTGATT,-0.01 kcal/mol
7,GGTTTCACGTGTCGAG,0.29 kcal/mol
8,TGAGACACGTGAGAGT,0.09 kcal/mol
9,TCATGCACGTGGGATA,-0.07 kcal/mol
10,GGTTTCACGTGCGAGG,0.34 kcal/mol
11,TGGTTCACGTGGGCAT,0.13 kcal/mol
12,GGCTACACGTGTGGTA,0.04 kcal/mol
13,TTCATCACGTGAGGAT,0.44 kcal/mol
14,TTGGCCACGTGGATTT,0.06 kcal/mol
15,ATATACACGTGGAGTG,-0.06 kcal/mol
16,TAGCGCACGTGTGGGG,-0.11 kcal/mol
17,GATGGCACGTGATTGT,0.2 kcal/mol
18,ATAGACACGTGGTATT,-0.12 kcal/mol
19,GGTGTCACGTGAATCT,0.37 kcal/mol
20,GGTAGCACGTGTTTCG,0 kcal/mol
21,CTAGTCACGTGAGGCG,0.43 kcal/mol
22,GGTGTCACGTGTTATG,0.19 kcal/mol
23,TGTAGCACGTGGCGGT,-0.12 kcal/mol
24,GGATTCACGTGATTTG,0.58 kcal/mol
25,ATAGTCACGTGTATTT,0.19 kcal/mol

row,Sequence,relative binding free energy
1,TGGTTCACGTGGATTA,0.27 kcal/mol
2,AGGTTCACGTGCGAAG,0.18 kcal/mol
3,GGGGACACGTGAAGCG,0.3 kcal/mol
4,GGGCTCACGTGTTGGT,0.37 kcal/mol
5,TATGTCACGTGTATCG,0.04 kcal/mol
6,ATAGTCACGTGTACGG,0.1 kcal/mol
7,AGTTACACGTGAGGAT,0.31 kcal/mol
8,TTGCTCACGTGGAGTA,0.3 kcal/mol
9,GGGGTCACGTGCGATG,0.2 kcal/mol
10,GGTAGCACGTGTAGCA,-0.02 kcal/mol
11,ATCGGCACGTGAATGG,0.1 kcal/mol
12,CGGGACACGTGGGCGA,-0.12 kcal/mol
13,TACGGCACGTGAGATG,0.26 kcal/mol
14,CGTAGCACGTGAATGG,0.15 kcal/mol
15,TTATGCACGTGCTGAA,-0.13 kcal/mol
16,GCAAGCACGTGTCGGG,0.05 kcal/mol
17,TCATGCACGTGTAGTT,0.04 kcal/mol
18,TTTTTCACGTGGGTCA,0.23 kcal/mol
19,GTGTCCACGTGGTATT,-0.06 kcal/mol
20,GAAGGCACGTGTTCGG,-0.05 kcal/mol
21,AGGTGCACGTGCTGGC,0.11 kcal/mol
22,GTGTGCACGTGGAGGG,0.01 kcal/mol
23,AGTGACACGTGCGTTG,0.04 kcal/mol
24,TGCTGCACGTGTGAGC,0.18 kcal/mol
25,ATTGTCACGTGGGGTA,-0.12 kcal/mol

row,Sequence,relative binding free energy
1,TGATGCACGTGCTTGA,-0.1 kcal/mol
2,ACTTTCACGTGTAATT,0.32 kcal/mol
3,AGTAACACGTGCGGGC,0.06 kcal/mol
4,GGCGGCACGTGAGGAA,0.18 kcal/mol
5,GGTGGCACGTGGCTTA,-0.15 kcal/mol
6,ATTTGCACGTGTCGGT,0.07 kcal/mol
7,GACTGCACGTGAGGTG,0.26 kcal/mol
8,TTCGACACGTGGTGAT,0.04 kcal/mol
9,ATTTTCACGTGAATAG,0.41 kcal/mol
10,AGCATCACGTGGGAGG,0 kcal/mol
11,GTGATCACGTGAATGG,0.32 kcal/mol
12,TTACACACGTGGGGGT,-0.28 kcal/mol
13,GAGATCACGTGTCGTG,0.3 kcal/mol
14,TACGGCACGTGGAGCG,-0.11 kcal/mol
15,CCTGGCACGTGTTGGG,-0.05 kcal/mol
16,GGGATCACGTGATTAG,0.37 kcal/mol
17,TGCCGCACGTGGTATG,-0.21 kcal/mol
18,TGAGGCACGTGTGTTT,0.03 kcal/mol
19,ATCAGCACGTGCGGGT,-0.16 kcal/mol
20,GTGTTCACGTGTTGTC,0.32 kcal/mol
21,AGGATCACGTGTATGC,0.25 kcal/mol
22,AGTGTCACGTGCTGTA,-0.07 kcal/mol
23,ATCGTCACGTGGGTGG,0.05 kcal/mol
24,GGAGGCACGTGTTTTC,0.02 kcal/mol
25,TCGGTCACGTGTAGGG,0.11 kcal/mol

row,Sequence,relative binding free energy
1,TTTTACACGTGCTTCG,0.17 kcal/mol
2,GTGTGCACGTGGTTGA,-0.04 kcal/mol
3,GGGAGCACGTGGGAAA,-0.15 kcal/mol
4,GGTATCACGTGCGGAG,0.19 kcal/mol
5,GTAATCACGTGTGCAT,0.28 kcal/mol
6,AAAAACACGTGTGGGG,-0.07 kcal/mol
7,TCATGCACGTGTGATT,-0.03 kcal/mol
8,AAGCGCACGTGACGGG,0.12 kcal/mol
9,AGCATCACGTGTTATT,0.15 kcal/mol
10,GTATGCACGTGCGGTT,-0.02 kcal/mol
11,CGGGTCACGTGCAGTG,0.04 kcal/mol
12,GGTGGCACGTGATGTG,0.12 kcal/mol
13,TTCTACACGTGTAATT,0.22 kcal/mol
14,TCTTGCACGTGTACGT,0.11 kcal/mol
15,TTCAGCACGTGAAGGT,0.16 kcal/mol
16,GCGGGCACGTGTCGAG,0.01 kcal/mol
17,TTGGGCACGTGTCGGT,-0.1 kcal/mol
18,GGTTTCACGTGCGTAT,0.4 kcal/mol
19,GATGGCACGTGAGGGA,0.21 kcal/mol
20,GAAGGCACGTGATGGC,0.04 kcal/mol
21,GGTTGCACGTGTGGGC,0.15 kcal/mol
22,ATTTACACGTGTGAGG,0.13 kcal/mol
23,TTTGCCACGTGACGGG,-0.09 kcal/mol
24,AATATCACGTGTTATA,0.08 kcal/mol
25,GTAGGCACGTGCTGTT,-0.16 kcal/mol

row,Sequence,relative binding free energy
1,AGTTTCACGTGGGATG,0.11 kcal/mol
2,CGCGACACGTGAGGGT,0.25 kcal/mol
3,TCTGTCACGTGTCATT,0.09 kcal/mol
4,GTTGCCACGTGATTTA,0.19 kcal/mol
5,GTGAACACGTGCTGGT,0.02 kcal/mol
6,AGTCTCACGTGTGTCT,0.22 kcal/mol
7,TAGTACACGTGGGCTT,-0.07 kcal/mol
8,ATTATCACGTGACGTT,0.22 kcal/mol
9,GTGTACACGTGAGGAG,0.24 kcal/mol
10,TTACTCACGTGAGGGT,0.31 kcal/mol
11,ATTAACACGTGGAGTT,0.06 kcal/mol
12,TGTATCACGTGTCCGG,0.14 kcal/mol
13,TGAAACACGTGGTAAG,0.08 kcal/mol
14,TAGAACACGTGGTTGT,-0.13 kcal/mol
15,TTGGACACGTGGCTGT,0.03 kcal/mol
16,GAAAGCACGTGTGGCG,0.16 kcal/mol
17,TGCGGCACGTGGGTCT,-0.31 kcal/mol
18,TGGTGCACGTGAGGGA,0.17 kcal/mol
19,ATGGACACGTGTTATT,0.1 kcal/mol
20,TTGTTCACGTGGGTGC,0.14 kcal/mol
21,ATAGACACGTGTGTAA,-0.02 kcal/mol
